The values below come from article PMC4336329 (PLoS ONE, 2015).

The whole screen tested about 310,000 compounds, of which about 14,000 (4.5%) showed an effect of 50% or more. The effect is printed as a negative number. This is one part of the list.
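Further: peak tail current of the secondary pulse compared with the same well before compound.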

The target in the assay is human ether-à-go-go-related gene (hERG) potassium channel (human, UniProt Q12809). Put plainly: primary screen, population patch clamp on CHO cells stably expressing hERG.
human ether-à-go-go-related gene (hERG) potassium channel, sequence (Q12809 whole entry, looked up): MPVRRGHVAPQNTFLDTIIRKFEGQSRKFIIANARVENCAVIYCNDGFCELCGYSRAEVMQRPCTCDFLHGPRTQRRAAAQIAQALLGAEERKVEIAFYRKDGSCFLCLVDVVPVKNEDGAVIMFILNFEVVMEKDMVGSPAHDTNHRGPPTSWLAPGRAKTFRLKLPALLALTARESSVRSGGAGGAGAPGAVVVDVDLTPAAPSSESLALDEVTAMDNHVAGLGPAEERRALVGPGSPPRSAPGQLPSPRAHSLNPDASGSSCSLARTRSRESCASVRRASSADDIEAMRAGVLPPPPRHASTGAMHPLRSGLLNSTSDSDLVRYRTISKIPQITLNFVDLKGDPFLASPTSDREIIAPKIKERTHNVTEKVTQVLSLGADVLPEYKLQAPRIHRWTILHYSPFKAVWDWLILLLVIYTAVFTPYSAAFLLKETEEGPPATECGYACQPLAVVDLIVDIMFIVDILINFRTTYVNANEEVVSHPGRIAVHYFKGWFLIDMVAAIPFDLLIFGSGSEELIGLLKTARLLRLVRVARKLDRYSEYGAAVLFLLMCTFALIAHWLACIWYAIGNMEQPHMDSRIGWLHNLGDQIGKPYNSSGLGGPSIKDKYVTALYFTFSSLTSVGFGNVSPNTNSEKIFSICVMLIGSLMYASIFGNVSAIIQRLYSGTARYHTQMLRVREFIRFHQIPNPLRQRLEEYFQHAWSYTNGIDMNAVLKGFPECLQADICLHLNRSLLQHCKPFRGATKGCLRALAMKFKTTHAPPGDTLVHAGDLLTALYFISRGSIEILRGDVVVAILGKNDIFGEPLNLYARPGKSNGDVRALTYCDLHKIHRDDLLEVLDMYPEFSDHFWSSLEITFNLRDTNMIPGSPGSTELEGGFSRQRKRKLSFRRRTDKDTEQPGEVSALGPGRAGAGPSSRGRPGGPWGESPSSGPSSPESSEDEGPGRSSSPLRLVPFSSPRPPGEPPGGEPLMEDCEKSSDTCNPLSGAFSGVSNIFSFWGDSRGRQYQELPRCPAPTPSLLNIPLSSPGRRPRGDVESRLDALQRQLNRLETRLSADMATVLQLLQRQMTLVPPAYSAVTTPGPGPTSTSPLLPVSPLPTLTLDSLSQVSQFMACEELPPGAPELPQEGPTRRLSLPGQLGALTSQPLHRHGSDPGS
With `Cc1ccc(NC(=O)COC(=O)Cc2cccs2)cc1S(=O)(=O)N1CCOCC1`, the “hERG current change (%, negative = inhibition) at 10uM” value is listed as -23.5%.
Next, `COc1ccc(CC(=O)n2nc(-c3ccccc3)nc2NCc2ccco2)cc1`: -19.7%.
Next, `COc1ccc(-c2nc(CSCC(=O)NC3CCCC3)c(C)o2)cc1OC`: -13.6%; `O=[N+]([O-])c1cccc(-c2c[n+]3c(n2-c2ccccc2)SCC3)c1.[Br-]`: -42.3%; `Cc1ccc(NC(=O)c2ccc(C)c(NC3=NC4CS(=O)(=O)CC4S3)c2)cc1C` (centres unmarked): 3.9%.
In the case of `Nc1nc(-c2cccs2)c(NC(=O)c2ccccc2)s1` it was 6.33%; in that of `COCCCNC(=O)/C(C#N)=C/c1c(N2CCN(c3ccccc3)CC2)nc2c(C)cccn2c1=O`, -7.32%; in that of `Cc1cc(=O)oc2cc(OCC(=O)N3CCC(C(=O)O)(c4ccccc4)CC3)ccc12`, 8.8%.
For the molecule `O=C(CN1C(=O)C2CCCCC2C1=O)OCn1nnc2ccccc2c1=O` (centres unmarked), the “hERG current change (%, negative = inhibition) at 10uM” value stood at 5.19%.
Next, `CC(=O)c1c(C)[nH]c(C(=O)NCCC2=CCCCC2)c1C`: 4.77%.
On to `O=C(NCc1ccccn1)c1nnc(Cc2ccc(Cl)cc2)o1`, for which the “hERG current change (%, negative = inhibition) at 10uM” value is reported as -6.71%.
Next, `COC(=O)c1cc(NC(=O)Cc2cccs2)cc(C(=O)OC)c1`: 21%; `O=C(Cn1cnc2c(cnn2-c2ccccc2)c1=O)N1CCOCC1`: 5.88%.
With `NC(=O)Cn1cnc2c(nnn2-c2cccc(Cl)c2)c1=O`, the “hERG current change (%, negative = inhibition) at 10uM” value was found to be 7.1%.
Next, `COc1cc(/C=C2\C(=O)NC(=O)N(c3ccccc3)C2=O)cc(OC)c1O`: 0.633%.
In the case of `Cc1cc(=O)c(C(=O)O)cn1Nc1ccc(Cl)cc1` it was 7.39%; in that of `O=C(N1CCCCC1)N1CCC(c2nc3ccccc3[nH]2)CC1`, -2.64%; in that of `COc1ccccc1NC(=O)c1sc(NC(=O)c2ccco2)c(C#N)c1C`, 17.7%.
In the case of `C/C(=N\NC(=O)c1nnn(-c2nonc2N)c1CN(C)c1ccccc1)c1ccccn1` it was 24.5%; in that of `COc1ccc(CCNC(=O)C(=O)NCC2OCCN2S(=O)(=O)c2cc(F)ccc2F)cc1OC` (centres unmarked), -2.83%; in that of `CCc1nnc(NC(=O)c2ccc(OC)c(S(=O)(=O)N3CCCC3)c2)s1`, -14.1%.
Regarding `CCCCCCCC(=O)Nc1cc(C(=O)NCCC)ccc1N1CCC2(CC1)CC(c1cccc(Br)c1)=NO2`, the “hERG current change (%, negative = inhibition) at 10uM” value stood at 18%.
In the case of `O=C(NCCO)c1cccc(Cl)c1` it was 18.8%; in that of `COc1ccc2c(c1OC)C(=O)N(c1ccc(OCc3ccccc3)cc1)C2=O`, 17.3%.
Regarding `CCn1c(Cc2ccc(OC)cc2)nnc1SCC(=O)Nc1ccc(N2CCOCC2)cc1`, the “hERG current change (%, negative = inhibition) at 10uM” value is listed as -4.99%.
In the case of `Cc1c(-c2cc(C(=O)O)c3ccccc3n2)cnn1C` it was 8.52%; in that of `CC1(c2nnc(-c3ccc(F)cc3)o2)CC(c2ccc(F)cc2)=NO1` (centres unmarked), -8.82%.
Next, `CC(OC(=O)C1CCCCC1)C(=O)Nc1ccc(S(N)(=O)=O)cc1` (centres unmarked): -7.15%; `Cc1ccc(Cn2cccc(NC(=O)NC3CCCCC3)c2=O)cc1`: -1.87%.
In the case of `CCn1c(=O)c2cc(S(=O)(=O)NCCOc3ccccc3)ccc2n(CC)c1=O` it was 7.08%; in that of `Cc1cc(-n2c(C)cc(C(=O)CSc3nnnn3-c3ccccc3)c2C)no1`, -21.3%.
On to `CCCCc1oc2c(c(=O)c1C)C(=O)CC(c1ccccc1)C2` (centres unmarked), for which the “hERG current change (%, negative = inhibition) at 10uM” value was -59.8%.
In the case of `Cc1nn(C(C)C(=O)NCc2ccc(Cl)cc2)c(=O)c2cc3occc3n12` (centres unmarked) it was 2.59%.
Consider `Cc1nc(NC(=O)c2csc3ccccc23)sc1C`, for which the “hERG current change (%, negative = inhibition) at 10uM” value is listed as -3.35%.
In the case of `CN1C(=S)SC(N(O)C=C2C=CC(=O)C=C2)C1(C)C` (centres unmarked) it was 12.3%.
In the case of `COc1cc2c(cc1OC)C(C(=O)Nc1ccc(F)c(Cl)c1)CC(=O)N2` (centres unmarked) it was 15.3%; in that of `Cc1cc(NC(=O)CCC(=O)N(Cc2cccs2)C(C(=O)NC2CCCC2)c2cccnc2)no1` (centres unmarked), 8.58%.
Next, `COc1ccc[nH]c1=O`: -23.5%; `CC(=O)N[C@@H](C)C(=O)N1CCN(S(=O)(=O)c2ccc(Cl)cc2)CC1`: -8.67%; `CCCC(=O)Nc1ccccc1N1CCN(C(=O)c2ccccc2)CC1`: -46%.
`COC(=O)C1C2C=CC3(CN(CC4CCCO4)C(=O)C13)O2` (centres unmarked): the “hERG current change (%, negative = inhibition) at 10uM” value was 23%.
Regarding `Cc1ccnc(NC2(C(F)(F)F)N=C(c3ccccc3)NC2=O)c1` (centres unmarked), the “hERG current change (%, negative = inhibition) at 10uM” value was 7.41%.
Regarding `CCOC(=O)NC(=O)/C(C#N)=C\c1ccccc1`, the “hERG current change (%, negative = inhibition) at 10uM” value was found to be 13.4%.
In the case of `O=C(COc1ccc2c(c1)CCC2)NCc1ccc(Cl)cc1` it was 14.5%; in that of `O=S(=O)(c1ccc(Cl)cc1)c1nc(-c2ccccc2F)oc1NCCN1CCOCC1`, -67%.
Next, `CCOC(=O)c1cc2c(=O)n3ccccc3nc2n(C(C)C)c1=NC(=O)c1c(-c2ccccc2Cl)noc1C`: 24.3%; `CCn1nnc(NC(=O)c2ccc([N+](=O)[O-])o2)n1`: 6.65%.
Next, `COc1ccc(OC)c(S(=O)(=O)Nc2ccc3c(c2)n(C)c(=O)n3C)c1`: 1.61%; `Cc1cc(NC(=O)CCC(=O)N(CC(=O)NC2CCCC2)c2ccc(Cl)cc2)no1`: -16.7%; `CC(C)(C)NC(=O)CSc1nc2cccnc2n1C1CCCCC1`: -2.41%.
In the case of `CC/C(O)=C(\C#N)c1nnc2n1CCCCC2`, the “hERG current change (%, negative = inhibition) at 10uM” value was 18.5%.
Next, `C/C(=C\C#N)n1nc(C)cc1N`: 14.7%.
In the case of `CSCCCNC(=S)N1CCN(S(=O)(=O)c2cccc(C(F)(F)F)c2)CC1` it was 5.07%; in that of `O=C1C2C3C=CC(C3)C2C(=O)N1/N=C/c1cn(Cc2ccccc2)c2ccccc12` (centres unmarked), 2.37%; in that of `Nc1nnc(SCC(=O)c2cccc([N+](=O)[O-])c2)s1`, -1.84%.
`Cc1ccc(CNC(=O)CCc2c(C)nc3ncnn3c2C)cc1`: the “hERG current change (%, negative = inhibition) at 10uM” value is -4.93%.
